Source: article PMC1831776, “Structure and characterization of a novel chicken biotin-binding protein A (BBP-A)” (BMC Structural Biology, 2007)

Biological target: T1, avidin isolated from chicken egg-white (wtAVD) (chicken), P02701
T1 chain: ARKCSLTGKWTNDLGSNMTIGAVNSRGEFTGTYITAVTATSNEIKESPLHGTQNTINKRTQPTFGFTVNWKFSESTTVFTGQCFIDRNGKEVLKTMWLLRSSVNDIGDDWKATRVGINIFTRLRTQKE
Assay: SEC; gel filtration, Superdex 200 10/300 GL, 50 mM NaPO4, 650 mM NaCl, pH 7.0; samples without BTN and after 15 min with 0.22 mM BTN; apparent masses from standard proteins
Conditions: remark: other sources report otherwise

- stoichiometry N: 4
B1: avidin isolated from chicken egg-white (wtAVD), P02701 25-152 (natural protein)
chain: T1 chain
